# Experimental data taken from article PMC4336329 (PLoS ONE, 2015).
# Hit rate of the full screen: of about 310,000 compounds, about 2,200 (0.71%) showed an effect of 50% or more. Effects have a minus sign here. Some of the results follow.
# Molecular target: human ether-à-go-go-related gene (hERG) potassium channel (human, UniProt Q12809)
# Assay: primary screen, population patch clamp on CHO cells stably expressing hERG
# human ether-à-go-go-related gene (hERG) potassium channel, sequence (Q12809 whole entry, looked up): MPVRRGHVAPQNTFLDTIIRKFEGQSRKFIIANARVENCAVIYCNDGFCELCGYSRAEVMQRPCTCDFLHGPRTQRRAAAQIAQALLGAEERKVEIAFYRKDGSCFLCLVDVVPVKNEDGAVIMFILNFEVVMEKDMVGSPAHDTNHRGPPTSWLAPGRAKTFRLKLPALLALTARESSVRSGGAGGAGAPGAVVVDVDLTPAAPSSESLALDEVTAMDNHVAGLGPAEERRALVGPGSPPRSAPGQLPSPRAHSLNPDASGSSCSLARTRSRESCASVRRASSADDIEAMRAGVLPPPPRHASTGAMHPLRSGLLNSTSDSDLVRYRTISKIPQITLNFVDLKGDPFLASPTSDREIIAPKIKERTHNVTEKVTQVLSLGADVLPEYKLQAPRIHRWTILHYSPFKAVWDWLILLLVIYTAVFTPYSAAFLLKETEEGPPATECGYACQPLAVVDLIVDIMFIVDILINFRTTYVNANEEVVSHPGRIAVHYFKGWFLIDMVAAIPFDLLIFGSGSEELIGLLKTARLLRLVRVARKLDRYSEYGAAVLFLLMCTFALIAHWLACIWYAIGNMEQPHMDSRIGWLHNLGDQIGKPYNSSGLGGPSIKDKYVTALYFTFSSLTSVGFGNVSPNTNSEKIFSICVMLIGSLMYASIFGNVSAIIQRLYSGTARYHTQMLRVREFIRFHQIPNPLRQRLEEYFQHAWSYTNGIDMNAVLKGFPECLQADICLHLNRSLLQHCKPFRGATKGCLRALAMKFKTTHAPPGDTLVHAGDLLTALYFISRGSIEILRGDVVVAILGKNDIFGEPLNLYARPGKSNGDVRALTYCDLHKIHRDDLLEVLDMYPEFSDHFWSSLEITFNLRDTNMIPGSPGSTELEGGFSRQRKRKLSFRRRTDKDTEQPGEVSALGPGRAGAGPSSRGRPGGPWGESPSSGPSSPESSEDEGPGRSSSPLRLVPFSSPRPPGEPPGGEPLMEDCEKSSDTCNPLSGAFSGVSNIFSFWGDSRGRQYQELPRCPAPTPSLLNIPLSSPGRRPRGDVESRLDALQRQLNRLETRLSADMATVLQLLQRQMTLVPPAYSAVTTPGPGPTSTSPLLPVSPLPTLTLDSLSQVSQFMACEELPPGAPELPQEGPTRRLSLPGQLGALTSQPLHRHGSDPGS
row,Compound,"hERG current change (%, negative = inhibition) at 1uM"
1,CCCCCn1c(=N)n(CC(O)COc2ccccc2OC)c2ccccc21.Cl (stereo not drawn),-86.3%
2,Nc1nnnn1/N=C/c1ccccc1OCc1ccc(Cl)cc1,-0.867%
3,CCOC(=O)C1CCN(CCCSc2ccccc2)CC1.Cl,-22.2%
4,COc1cccc(NC(=O)CN(C)C(=O)c2cc(S(=O)(=O)NCc3ccccc3)ccc2C)c1,-15.2%
5,OCCSc1nc(-c2ccccc2)nc2ccc(F)cc12,10.8%
6,Cc1ccc(OC(=O)c2ccc(C)c(C)c2)cn1,8.78%
7,Cc1nc2ccc(NC(=O)c3ccc(Cl)c(NC(=O)c4cccs4)c3)cc2s1,13.2%
8,Cc1cccc(C)c1NC(=O)c1cccnc1,14.9%
9,COc1nc(-c2ccccc2)ccc1-c1noc(COc2ccccc2)n1,17.7%
10,CC(C)NC(=O)C1CCN(C2CCN(C(=O)c3cc4c(s3)CCCCC4)CC2)CC1,6.33%
11,O=C(COc1ccc(Cl)cc1)NCc1nnc(SCC(=O)N2CCCCC2)o1,-3.7%
12,Cc1nc2c(-c3ccccc3)c(C)nn2c(C)c1CC(=O)O,7.18%
13,Cc1cccc2cc(CN(Cc3ccco3)C(=O)c3ccco3)c(=O)[nH]c12,3.76%
14,COc1cccc(OCCOc2c(OC)cccc2OC)c1,17%
15,Cc1csc(NC(C)c2nc3cc(Cl)c(N4CCCCC4)cc3n2CCOCCO)n1 (stereo not drawn),2.53%
16,CC(C)(C#CC(O)(c1ccccc1)c1ccccc1)N1CCCC1.Cl,-13.9%
17,CCN(CC)S(=O)(=O)c1ccc(Cl)c(C(=O)NC(C)C(c2cccs2)N2CCCC2)c1 (stereo not drawn),2.12%
18,COc1ccc(C(=O)C2CCCN(C(=O)c3cc4nc(C)cc(C)n4n3)C2)cc1F (stereo not drawn),3.7%
19,COc1ccc(S(=O)(=O)NC2(C(F)(F)F)N=C(c3ccccc3)NC2=O)cc1 (stereo not drawn),5.44%
20,CC(C)COC(=O)C(N)C(C(=O)OCC(C)C)c1ccccc1.Cl (stereo not drawn),11.2%
21,CC(C)NC(=O)c1cc2c(-c3ccc(Cl)cc3)nn(C)c2s1,6.15%
22,COc1cccc(-c2ncc3ccccc3c2COC(=O)CCC(=O)O)c1,11.6%

row,Compound,"hERG current change (%, negative = inhibition) at 1uM"
1,O=C(COC(=O)c1cccnc1Cl)Nc1cc(S(=O)(=O)N2CCCCC2)ccc1Cl,1.71%
2,CC1CC(=O)N(c2ccc(C(C)C)cc2)C(=O)C1,12.4%
3,CN(C(=O)CSc1nnc(C2CC2)n1-c1ccccc1)C1CCS(=O)(=O)C1 (stereo not drawn),4.71%
4,COc1cccc(CC(=O)Nc2sc3c(c2C(N)=O)CCCC3)c1,5.42%
5,CCOc1cc(S(=O)(=O)N2CCC(c3nc4ccccc4s3)CC2)c(OCC)cc1S(=O)(=O)N1CCCCC1,14%
6,C=CCn1c(-c2ccco2)n[nH]c1=S,2.81%
7,O=C(NCc1ccccc1Cl)c1cc2ccccc2oc1=O,10.2%
8,Cc1cccc(C)c1NC(=O)Nc1ccc2c(c1)OCO2,1.95%
9,Cc1ccc(S(=O)(=O)NCCCNc2ccc([N+](=O)[O-])cc2)cc1,-8.2%
10,CC(Sc1ccccc1)C(=O)NNC(=O)c1csc(N2CCOCC2)n1 (stereo not drawn),9.42%
11,COc1ccc(COC(=O)NC(C(=O)O)c2ccccc2)cc1 (stereo not drawn),5.57%
12,CC(C)[C@H](NC(=O)c1ccco1)C(=O)OCC(=O)Nc1ccc(Cl)c(S(=O)(=O)N(C)C)c1,7.7%
13,COc1ccc2nc(NC(=O)c3ccc(F)cc3)sc2c1,18.4%
14,CC(OC(=O)CCN=C1NS(=O)(=O)c2ccccc21)C(=O)NC1CCCCC1C (stereo not drawn),-6.14%
15,O=C(c1ccccc1)n1ccc(-c2cnc(-c3ccccc3)s2)n1,12.2%
16,COc1cccc(NC(=O)C(C)SCc2ccccc2)c1 (stereo not drawn),4.11%
17,COC(=O)C1=C(c2ccc(F)cc2F)C[C@@H]2CC[C@H]1N2C(=O)NCc1ccc(F)cc1,7.56%
18,CCCCCCn1c(CN2CCN(C(=O)OCC)CC2)nc2c1c(=O)n(C)c(=O)n2C,-13.7%
19,NC(=O)c1sc2nc3c(c(-c4ccc(Cl)cc4)c2c1N)CCCC3,9.2%
20,COCc1ccc(C(=O)N2CCCC(CCC(=O)NCc3ccccc3F)C2)o1 (stereo not drawn),4.17%
21,Cc1cc(C)cc(OCC(=O)OC(C)C(=O)Nc2ccc(Cl)cn2)c1 (stereo not drawn),6.93%
22,CCCS(=O)(=O)c1nc(S(=O)(=O)c2ccc(C)cc2)c(N2CCc3ccccc3C2)s1,8.61%

row,Compound,"hERG current change (%, negative = inhibition) at 1uM"
1,CC(C)CN(C(=O)c1cccc(Cl)c1)c1c(N)n(Cc2ccccc2)c(=O)[nH]c1=O,10.4%
2,CCOC(=O)N1CCN(Cc2c(F)cccc2Cl)CC1,4.02%
3,CC(C)C[C@H](NC(=O)c1nc[nH]c1C(=O)NCCCCCNC(=O)OC(C)(C)C)C(=O)OC(C)(C)C,12.9%
4,Cc1cc(C)nc(SCCCNCc2ccccc2)n1.Cl,11.4%
5,CC(C)(C)NCC(O)COc1cccc2c1CC(O)C(O)C2 (stereo not drawn),8.39%
6,O=C(NCCCN1CCOCC1)C(Sc1ccccc1)c1ccccc1 (stereo not drawn),0.0189%
7,COc1ccc(/C=N/n2c(C)nnc2C)c(OC)c1OC,14.1%
8,O=C(CCC(=O)c1cccs1)NC(c1ccccc1)c1ccccc1,8.92%
9,CSc1nsc(N/N=C/c2ccc3c(c2)OCO3)c1C#N,9.07%
10,CCOC(=O)c1cn(-c2ccccc2)nc1-c1cccnc1,11.6%
11,CSc1nc2c(cc1C#N)CCC2,11.4%
12,O=C(/C=C/c1ccccc1)NCCN1CCOCC1,21.7%
13,Clc1cccc(OCCN2CCN(CCOc3cccc(Cl)c3)CC2)c1,-10.3%
14,COc1ccc(-n2cnnc2SCc2csc(-c3ccccc3)n2)cc1,0.368%
15,COC(=O)[C@]1(CC(C)C)N[C@H](c2ccc(-c3ccc(F)cc3)cc2)[C@@H]2C(=O)N(C)C(=O)[C@@H]21.O=C(O)C(F)(F)F,-2.78%
16,CCN(CC(=O)NCc1cccs1)C(=O)c1ccc([N+](=O)[O-])o1,-9.13%
17,CCOc1ccccc1N(C(=O)c1snc(C(N)=O)c1N)C(C(=O)NCC1CCCO1)c1ccc2ncccc2c1 (stereo not drawn),19.7%
18,COc1ccc(C(=O)NCc2cccnc2)cc1OC,14.4%
19,Cc1ccc(CNC(=O)C(NS(=O)(=O)c2cccs2)C(C)C)cc1 (stereo not drawn),14%
20,O=C(COC(=O)CCS(=O)(=O)c1ccccc1)Nc1cc(S(=O)(=O)N2CCCCC2)ccc1Cl,5.08%
21,NC(=O)c1ccsc1NC(=O)c1nc(-c2ccccc2)n(-c2ccccc2)n1,7.07%
22,COc1ccc([C@@H]2CC=C(C(=O)O)[C@H](c3ccc(F)cc3)N2S(=O)(=O)c2ccc(C)cc2)cc1OC,5.13%

row,Compound,"hERG current change (%, negative = inhibition) at 1uM"
1,CC(C)CN(CC(C)C)C(=S)NC1CCCCC1,10.9%
2,Cc1cc(C)cc(Oc2nn[nH]n2)c1,21%
3,COC(=O)C1CCN(S(=O)(=O)c2ccc(NC(C)=O)cc2)CC1,6.55%
4,CC(=O)c1c(C)[nH]c(=S)c(C#N)c1-c1ccc(F)cc1,15.4%
5,CCC(C)Nc1nc(N)c([N+](=O)[O-])c(NC2CCCCC2)n1 (stereo not drawn),25.2%
6,CCC(C)[C@H]1CNC(=O)C(=O)N1CCCc1cc(OC)c(OC)c(OC)c1 (stereo partly drawn),13.6%
7,Cc1ccc(S(=O)(=O)c2c(N)n(C)c3nc4ccccc4nc23)cc1,7.64%
8,O=C(CCCN1C(=O)/C(=C\c2ccco2)SC1=S)Nc1ccc2ccccc2c1,3.5%
9,Fc1cccc(Cl)c1/C=C/c1cnc2ccccc2n1,13.6%
10,COc1ccccc1NC(=O)NNC(=O)CCN1CCOCC1,8.19%
11,Cc1noc(C)c1COc1cccc(C(=O)OCC(=O)N2CC(=O)Nc3ccccc32)c1,10.6%
12,CC1CC(C)CN(CC(=O)Nc2cc(S(=O)(=O)N3CCOCC3)ccc2N2CCCC2)C1 (stereo not drawn),9.71%
13,CN(C)c1ccc(/C=N/NC(=O)c2ccc(NC(=O)c3ccccc3)cc2)cc1,6.02%
14,O=C(c1ccc(Cl)c(S(=O)(=O)N2CCCC2)c1)N1CCOCC1,-21.1%
15,CC1(C)Cc2ccccc2-c2nnc(-c3ccco3)n21,8.41%
16,COC1(OC)C(=N/O)/C(=N\O)CCC1O (stereo not drawn),2.15%
17,CCCOc1ccc2c(=O)c(-c3cc(C(=O)OC)oc3C)c(C)oc2c1,5.56%
18,O=C(CN(CC1CCCO1)C(=O)CCC(=O)Nc1ccccn1)NCc1ccccc1 (stereo not drawn),6.91%
19,Cl.Nc1ccc(N2CCCCCC2)cc1,-2.52%
20,COc1cc(NC(=O)CN2C(=O)NC(C)(c3ccc4ccccc4c3)C2=O)c(C)cc1[N+](=O)[O-] (stereo not drawn),18.1%
21,O=C(CC1S/C(=N/N=C2CCCCCC2)NC1=O)Nc1ccccc1C(F)(F)F (stereo not drawn),10.8%
